Here are results for one molecule from patent publication US20240101716A1 (LA NOVA MEDICINES DEVELOPMENT, published 2024).

Where two headings read alike, the source gives them in different places.

The target of experiment [1] is T1, human PD-L1 on CHO-K1 cells (human, UniProt Q9NZQ7). Briefly: cell-based or functional assay.
The target of experiment [2] is T2, recombinant human PD-L1 His protein (human, UniProt Q9NZQ7 in part).
T2 construct: not shown: His tag
Briefly: SPR Biacore T200, PD-L1 His on chip, HCAb analyte; Table 13: first affinity determination of the parent HCAbs. On the procedure: (§1) Affinity constant (Kd) of each sdAb and HCAb was determined by surface plasmon resonance (SPR) on a BIAcore T200 instrument. Briefly, PD-L1 His was amine-coupled to a CMS sensor chip at a density of no higher than 100 RU. […] Flow rate was 30 μl/min in all experiments. Association and dissociation phases were 5 and 10 min, respectively. The chip was regenerated using Glycine/HCl pH 1.5. Binding curves at different concentrations of sdAbs and HCAbs were used to calculate the kinetic parameters kₒₙ, koff and KD.

For experiment [3], the target named is T2, recombinant human PD-L1 His protein. Briefly: SPR affinity ranking, PD-L1/His as ligand on chip.
T2 sequence (Q9NZQ7 19-239 limits assumed): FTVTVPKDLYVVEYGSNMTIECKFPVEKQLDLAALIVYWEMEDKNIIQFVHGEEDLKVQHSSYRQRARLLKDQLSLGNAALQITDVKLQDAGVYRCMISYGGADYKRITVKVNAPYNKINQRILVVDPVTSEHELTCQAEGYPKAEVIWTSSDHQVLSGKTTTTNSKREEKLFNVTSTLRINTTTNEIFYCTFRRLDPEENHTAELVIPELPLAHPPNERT
For experiment [4] the target is unchanged. Briefly: SPR Biacore T200, PD-L1 His on chip, HCAb analyte. On the procedure:
(§2) Association and dissociation phases were 5 and 10 min, respectively. The chip was regenerated using Glycine/HCl pH 1.5.

The target of experiment [5] is T1, human PD-L1 on CHO-K1 cells. Description: cell-based or functional assay. The source holds these as a separate data set.
T1 sequence (Q9NZQ7 19-290): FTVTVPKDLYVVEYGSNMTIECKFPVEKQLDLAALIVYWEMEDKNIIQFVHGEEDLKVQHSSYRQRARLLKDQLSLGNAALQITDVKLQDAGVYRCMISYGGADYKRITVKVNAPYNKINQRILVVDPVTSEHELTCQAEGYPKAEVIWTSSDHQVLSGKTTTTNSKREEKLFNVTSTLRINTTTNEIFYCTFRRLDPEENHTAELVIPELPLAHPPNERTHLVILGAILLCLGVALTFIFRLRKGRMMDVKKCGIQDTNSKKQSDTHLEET
In experiment [6] the target is T2, recombinant human PD-L1 His protein. Description: SPR Biacore T200, PD-L1 His on chip, HCAb analyte. On the procedure:
as §1
The source holds these as a separate data set.

For experiment [7] the target is unchanged. Description: SPR Biacore T200, PD-L1 His on chip, HCAb analyte; Table 21: later run beside the humanized HCAbs; PD-L1 His amine-coupled at no higher than 100 RU. On the procedure:
as §2

B1: AS06730 HCAb (Fc fusion)
chain: QVQLVESGGGLVQAGGSLRLSCAASGRTFITYAIGWFRQAPGKEREFVSAINWSGSMTSYADSVKGRFTISRDNAKNTVYLQMNGLKPEDTAVYYCAAHRGAIAPIAQSVYTNWGQGTQVTVSS[skipping human IgG1 Fc]
notes: heavy chain-only antibody: sdAb fused with human Fc region; also called AS0730 HCAb
Take B1: the results for the “EC50 of PD-L1-based blockade assay (luciferase reporter)” value in experiment [1] and in experiment [5] were 2.15 nM and 6.79 nM, respectively. Further, the equilibrium dissociation constant (Kd) worked out at 0.0161 nM in experiment [2], 1.43 nM in experiment [3] and 2.2 nM in experiment [7]. For the same molecule, the koff in experiment [3] is 0.000335 s⁻¹; in experiment [4], 0.00017 s⁻¹; in experiment [6] it was 2.44e-05 s⁻¹. In addition, the kon came out at 234000 M⁻¹ s⁻¹ in experiment [3], 76000 M⁻¹ s⁻¹ in experiment [4] and 1.52e+06 M⁻¹ s⁻¹ in experiment [6].
